From PubChem BioAssay AID2326 (National Center for Advancing Translational Sciences (NCATS), 2010) come the findings set out here.

Hit rate of the full screen: of about 270,000 compounds, about 1,100 (0.41%) were called active. About 3% were inconclusive and are not listed. Calls follow the shape of the full dose curve. The source holds several records for some structures; these can differ, active in one and inactive in another. Certain results were filed several times, with different values. This is not the full list of results. The source may hold further records. The values listed for one entry are repeats (runs, samples, wells, individuals or studies). Records carry a tag for their origin. A, B and so on number the origins entry by entry.
Potency is read from the fitted curve at half-maximal effect.

A short description of this assay: qHTS Assay for Inhibitors of Influenza NS1 Protein Function. Also: actives are rising curves; nearly all actives have a fitted effect of over 50% in size. The settings on record: series mostly up to 46.1 µM. The text has this: NIH Chemical Genomics Center [NCGC]
NIH Molecular Libraries Probe Centers Network [MLPCN]
Assay Submitter (PI): Daniel Engel
Influenza is a world-wide public health problem and emerging forms of the virus have the potential to cause a pandemic of equal or greater magnitude to the outbreaks recorded in 1918, 1957 or 1968. Vaccine development is proceeding and there also exist two classes of anti-influenza compounds. However these therapeutic modalities are neither fully effective nor widely enough available to fulfill global needs. In addition their potential usefulness against newly emergent strains is not known. Efforts are needed to develop novel agents against influenza virus, including broad-spectrum agents. Identification of small molecules that inhibit NS1 function either directly or by interfering with specific cellular pathways may be a key to increasing our defense against the virus.
We have miniaturized and optimized a cell based assay in which NS1 from influenza A is expressed in the budding yeast S. cerevisiae. NS1 is a multi-functional protein that counters the host innate immune response and facilitates viral versus cellular gene expression. Expression of NS1 causes a pronounced slow growth phenotype in yeast due to its intrinsic molecular activities. […]
9. Read plate using Viewlux protocol for optical density 600 (OD600) using excitation filter 600nm.
In general terms: qHTS replaces the single test concentration by a dilution series.
Turning to `O=C(Cn1c(=O)sc2ccccc21)Nc1nc2c(s1)CCCC2`, the Potency result is “inactive [sample A] and active: 1 µM [sample B]”.
